# Laboratory results as given in ChEMBL document CHEMBL5606458, “ASAP - ZIKV NS2B-NS3 protease fluorescence single point” (2024).
# About 160 (5.9%) of roughly 2,700 compounds showed an effect of 50% or more. This is one part of the list.
# Molecular target: Nonstructural protein 3 (Zika virus) (UniProt A0A024AXB9)
# [1] = PRVABC59, Concentration 15.0 uM, Number of replicates 1.0
# [2] = PRVABC59, Concentration 10.0 uM, Number of replicates 1.0
# [3] = PRVABC59, Concentration 50.0 uM, Number of replicates 1.0
# UniProt A0A024AXB9, sequence (A0A024AXB9 as listed by the source): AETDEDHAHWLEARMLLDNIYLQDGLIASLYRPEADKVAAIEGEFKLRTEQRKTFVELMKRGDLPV
structure (smiles),measurement,setting,value
C[C@H](NC(=O)c1cc(Cl)ccc1NS(=O)(=O)c1ccc(Oc2ccccc2Cl)cc1)c1cccc(C(F)(F)F)c1,inhibition,[1],39.3%
OB(O)c1cccc(-c2noc([C@H]3CCN4CCC[C@H]4C3)n2)c1,inhibition,"PRVABC59, Concentration 49.5 uM, Number of replicates 2.0, Standard deviation 0.028602200098645038 %",-3.1%
same,inhibition,"PRVABC59, Concentration 99.01 uM, Number of replicates 2.0, Standard deviation 0.7191400436111959 %",-2.22%
same,inhibition,"PRVABC59, Concentration 198.0 uM, Number of replicates 2.0, Standard deviation 0.04698926852370469 %",-0.756%
CC(C)(C)N(C[C@H](O)c1ccc(O)c(CO)c1)C(=O)c1cc(Cl)ccc1NS(=O)(=O)c1ccc(Oc2ccccc2Cl)cc1,inhibition,[1],14.6%
Cn1ccnc1-c1cc(NC(=O)c2cnn([C@H]3CCCNC3)c2)[nH]n1,inhibition,"PRVABC59, Concentration 49.5 uM, Number of replicates 2.0, Standard deviation 0.31193658084925274 %",6.99%
same,inhibition,"PRVABC59, Concentration 99.01 uM, Number of replicates 2.0, Standard deviation 0.6162651497801069 %",9.53%
same,inhibition,"PRVABC59, Concentration 198.0 uM, Number of replicates 2.0, Standard deviation 0.2510711368029124 %",10.9%
NCCOc1cccc2c1CCB(O)O2,inhibition,"PRVABC59, Concentration 49.5 uM, Number of replicates 2.0, Standard deviation 0.29139016078758595 %",-3.64%
same,inhibition,"PRVABC59, Concentration 99.01 uM, Number of replicates 2.0, Standard deviation 0.012591118111538527 %",-4.36%
same,inhibition,"PRVABC59, Concentration 198.0 uM, Number of replicates 2.0, Standard deviation 0.9209367940578399 %",-1.98%
O=C(c1cc(Cl)ccc1NS(=O)(=O)c1ccc(Oc2ccccc2Cl)cc1)N1CCN(CCOc2ccccc2)CC1,inhibition,[1],22%
Cc1cc(CO)c2cccc(NC(=O)CC3CCNCC3)c2n1,inhibition,"PRVABC59, Concentration 49.95 uM, Number of replicates 2.0, Standard deviation 2.2586421938534733 %",41.5%
same,inhibition,"PRVABC59, Concentration 99.9 uM, Number of replicates 2.0, Standard deviation 1.48045087514324 %",81%
O=C(c1cc(Cl)ccc1NS(=O)(=O)c1ccc(Oc2ccccc2Cl)cc1)N1CCN(Cc2cc(F)ccc2F)CC1,inhibition,[1],17.7%
Cc1cc(CCNC(=O)[C@]2(c3ccc(F)cc3)CCCNC2)c2cn[nH]c2c1,inhibition,"PRVABC59, Concentration 49.5 uM, Number of replicates 2.0, Standard deviation 1.1507413897454284 %",2.45%
same,inhibition,"PRVABC59, Concentration 99.01 uM, Number of replicates 2.0, Standard deviation 0.3594880040383957 %",4.86%
same,inhibition,"PRVABC59, Concentration 198.0 uM, Number of replicates 2.0, Standard deviation 2.037097453243353 %",8.97%
N#Cc1cccnc1N1CCN(C(=O)c2cc(Cl)ccc2NS(=O)(=O)c2ccc(Oc3ccccc3Cl)cc2)CC1,inhibition,[1],-2.76%
Cc1cnccc1NC(=O)c1cccc(C(F)(F)F)n1,inhibition,"PRVABC59, Concentration 49.5 uM, Number of replicates 2.0, Standard deviation 1.2676468851520968 %",-3.2%
same,inhibition,"PRVABC59, Concentration 99.01 uM, Number of replicates 2.0, Standard deviation 0.2009180729488889 %",-4.6%
same,inhibition,"PRVABC59, Concentration 198.0 uM, Number of replicates 2.0, Standard deviation 0.32519699091514426 %",-5.02%
O=Cc1ccc(N2CCC(C(=O)NCc3ccccc3Br)CC2)cc1,inhibition,[2],21.6%
COc1ccc(S(=O)(=O)N[C@H]2CC[C@H](C(=O)Nc3nc4ccccc4s3)CC2)cc1,inhibition,"PRVABC59, Concentration 49.5 uM, Number of replicates 2.0, Standard deviation 1.516279405300169 %",4.79%
same,inhibition,"PRVABC59, Concentration 99.01 uM, Number of replicates 2.0, Standard deviation 2.0429029287446374 %",5.82%
same,inhibition,"PRVABC59, Concentration 198.0 uM, Number of replicates 2.0, Standard deviation 2.7145967477005732 %",5.18%
C[C@H]1CCCCN1CCCNC(=O)c1cc(Cl)ccc1NS(=O)(=O)c1ccc(Oc2ccccc2Cl)cc1,inhibition,[1],18%
O=Cc1ccc(N2CCC(C(=O)Nc3ccccc3I)CC2)cc1,inhibition,[3],24.9%
Cc1cc(Br)cc(NC(=O)c2cc(Cl)ccc2NS(=O)(=O)c2ccc(Oc3ccccc3Cl)cc2)c1,inhibition,[1],53.6%
O=C(NC1CCC(C(F)(F)F)CC1)c1cc(Cl)ccc1NS(=O)(=O)c1ccc(Oc2ccccc2Cl)cc1 (centres undefined),inhibition,[1],30.2%
O=C(c1cc(Cl)ccc1NS(=O)(=O)c1ccc(Oc2ccccc2Cl)cc1)N1CCN(c2ncccn2)CC1,inhibition,[1],7.48%
O=Cc1ccc(N2CCC(C(=O)N3CCN(C4CCCC4)CC3)CC2)cc1,inhibition,[3],26.3%
O=Cc1ccc(N2CCC(C(=O)Nc3ccc(Oc4ccc(Cl)cc4)cc3)CC2)cc1,inhibition,[3],10.6%
Cc1cc(Br)cc(C)c1NC(=O)c1cc(Cl)ccc1NS(=O)(=O)c1ccc(Oc2ccccc2Cl)cc1,inhibition,[1],24.9%
Cc1cc(CO)c2cccc(Cc3cccc(NC(=O)[C@H](N)CCO)c3)c2n1,inhibition,"PRVABC59, Concentration 49.95 uM, Number of replicates 2.0, Standard deviation 2.896018531465293 %",45.5%
same,inhibition,"PRVABC59, Concentration 99.9 uM, Number of replicates 2.0, Standard deviation 2.794226811640934 %",46.8%
Cc1cc(CO)c2cccc(Cc3ccccc3NC(=O)[C@@H]3C[C@@H](O)CN3)c2n1,inhibition,"PRVABC59, Concentration 49.95 uM, Number of replicates 2.0, Standard deviation 1.3843880921432699 %",8.48%
same,inhibition,"PRVABC59, Concentration 99.9 uM, Number of replicates 2.0, Standard deviation 1.3436712019086534 %",23.6%
Cc1cc(CO)c2cccc(Cc3cccc(C(=O)NCc4sccc4C)c3)c2n1,inhibition,"PRVABC59, Concentration 49.95 uM, Number of replicates 2.0, Standard deviation 1.2898911488591764 %",-5.17%
same,inhibition,"PRVABC59, Concentration 99.9 uM, Number of replicates 2.0, Standard deviation 0.14681702950115297 %",6.55%
O=C(NC1C2CC3CC(C2)CC1C3)c1cc(Cl)ccc1NS(=O)(=O)c1ccc(Oc2ccccc2Cl)cc1 (centres undefined),inhibition,[1],44.9%
NCc1cccc(NC(=O)C2(NC(=O)OCc3ccccc3)CC(F)(F)C2)c1,inhibition,"PRVABC59, Concentration 49.5 uM, Number of replicates 2.0, Standard deviation 1.698538014742072 %",0.243%
same,inhibition,"PRVABC59, Concentration 99.01 uM, Number of replicates 2.0, Standard deviation 0.6655619582597831 %",2.77%
same,inhibition,"PRVABC59, Concentration 198.0 uM, Number of replicates 2.0, Standard deviation 0.8342115610517613 %",11.1%
COc1cccc(-c2cc(CNC(=O)c3cc(Cl)ccc3NS(=O)(=O)c3ccc(Oc4ccccc4Cl)cc3)on2)c1,inhibition,[1],44.7%
CNC(=O)c1cncnc1NS(=O)(=O)c1ccc(Oc2ccccc2Cl)cc1,inhibition,"PRVABC59, Concentration 49.5 uM, Number of replicates 2.0, Standard deviation 0.35115742654912646 %",12.9%
O=Cc1ccc(N2CCC(C(=O)NCCc3ccc(Cl)c(Cl)c3)CC2)cc1,inhibition,[3],-5.07%
Cc1cccc(CN2CCN(C(=O)c3cc(Cl)ccc3NS(=O)(=O)c3ccc(Oc4ccccc4Cl)cc3)CC2)c1,inhibition,[1],9.71%
CC[C@H](NC(=O)C1CCN(c2ccc(C=O)cc2)CC1)c1cccc(C)n1,inhibition,[2],25.5%
O=Cc1ccc(N2CCC(C(=O)N3CCc4ccccc4[C@H]3c3ccccc3)CC2)cc1,inhibition,[3],21.9%
COc1c(Cl)cccc1NC(=O)c1cc(Cl)ccc1NS(=O)(=O)c1ccc(Oc2ccccc2Cl)cc1,inhibition,[1],38.1%
Cc1cnccc1NC(=O)CNCC(C)C,inhibition,"PRVABC59, Concentration 49.5 uM, Number of replicates 2.0, Standard deviation 0.771833635199759 %",-2.19%
same,inhibition,"PRVABC59, Concentration 99.01 uM, Number of replicates 2.0, Standard deviation 0.34752723419318615 %",-2.29%
same,inhibition,"PRVABC59, Concentration 198.0 uM, Number of replicates 2.0, Standard deviation 0.5718035120552976 %",0.253%
Cc1cc(NC(=O)c2[nH]c([C@H]3CCCNC3)nc2C)n[nH]1,inhibition,"PRVABC59, Concentration 49.5 uM, Number of replicates 2.0, Standard deviation 0.8509605500625965 %",-4.49%
same,inhibition,"PRVABC59, Concentration 99.01 uM, Number of replicates 2.0, Standard deviation 1.1083243799355795 %",-3.82%
same,inhibition,"PRVABC59, Concentration 198.0 uM, Number of replicates 2.0, Standard deviation 1.5192761305229905 %",-2.17%
O=C(c1cc(Cl)ccc1NS(=O)(=O)c1ccc(Oc2ccccc2Cl)cc1)N1CCCN(c2ccc(C(F)(F)F)cn2)CC1,inhibition,[1],30%
O=C(Nc1ccccc1-c1ccccc1)c1cc(Cl)ccc1NS(=O)(=O)c1ccc(Oc2ccccc2Cl)cc1,inhibition,[1],36.2%
O=Cc1ccc(N2CCC(C(=O)NC3CCC(C(F)(F)F)CC3)CC2)cc1 (centres undefined),inhibition,[3],31.3%
O=C(NCCc1cc(F)cc(F)c1)c1cc(Cl)ccc1NS(=O)(=O)c1ccc(Oc2ccccc2Cl)cc1,inhibition,[1],32.7%
Cc1cccc(NC(=O)CNC(=O)c2cc(Cl)ccc2NS(=O)(=O)c2ccc(Oc3ccccc3Cl)cc2)c1C,inhibition,[1],42%
CN(C)C(=O)CN1CCN(C(=O)C2CCN(c3ccc(C=O)cc3)CC2)CC1,inhibition,[3],21.2%
COc1ccccc1N1CCN(C(=O)Cc2cccc3c(CO)cc(C)nc23)CC1,inhibition,"PRVABC59, Concentration 99.9 uM, Number of replicates 2.0, Standard deviation 1.6569335540246648 %",-9.63%
